# In PubChem BioAssay AID624255 (Broad Institute, 2012):
# Out of some 77,000 compounds screened, about 4,600 (6%) were called active. The shares of active, inactive and inconclusive entries below differ from those in the screen.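 Rule for the calls: active = mean inhibition above about 93%, with at least 55% of replicates each passing it (limit read from the data, passing the limit was not always enough); inconclusive = only one of those two conditions holds; inactive = neither condition holds.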 Some structures have more than one record in an assay (separate samples or runs), and their calls can disagree.
# Experiment: T. cruzi intracellular proliferation inhibitors, primary screen, cell-based, beta-gal Tulahuen parasites, NIH3T3 host, luminescence (AID 624255)
# Details: T. cruzi beta-gal in NIH3T3, GalScreen luminescence, 90 h; at 8.34 µM; stronger effect = higher value
row,Structure (SMILES),inhibition
1,C[C@@H]1CCCCO[C@@H](CN(C)C(=O)CCC(F)(F)F)[C@@H](C)CN([C@@H](C)CO)C(=O)c2cc(NC(=O)Nc3ccc4c(c3)OCO4)ccc2O1,inactive: -1.8%
2,COc1ccc(NC(=O)N(C)C[C@@H]2OCCCC[C@@H](C)Oc3ccc(NS(=O)(=O)c4ccc(Cl)cc4)cc3C(=O)N([C@H](C)CO)C[C@H]2C)cc1,inconclusive: 96.8%
3,CN1c2ccc(-c3cccc(C#N)c3)cc2[C@H]2[C@H](CCN2C(=O)CN2CCOCC2)[C@H]1CO,inconclusive: 95.9%
4,C[C@@H]1CN([C@H](C)CO)C(=O)c2cc(C#CC3CCCC3)cnc2O[C@H]1CN(C)S(=O)(=O)c1cccc(F)c1,inconclusive: 115%
5,OC[C@@H]1[C@H](c2ccc(/C=C/c3ccccc3)cc2)[C@@H]2CN(Cc3ccncc3)CCCCN12,active: 121%
6,C[C@H](CO)N1C[C@H](C)[C@@H](CN(C)Cc2ccc(Oc3ccccc3)cc2)Oc2ccc(NC(=O)Nc3ccc4c(c3)OCO4)cc2C1=O,inconclusive: 97.6%
7,COc1cccc(S(=O)(=O)N(C)C[C@H]2Oc3ncc(C#CC(C)C)cc3C(=O)N([C@@H](C)CO)C[C@@H]2C)c1,active: 114%
8,C[C@H](CO)N1C[C@H](C)[C@H](CN(C)S(=O)(=O)c2ccc(F)cc2)Oc2ncc(-c3cccc(C(F)(F)F)c3)cc2C1=O,active: 109%
9,CCCC#Cc1ccc2c(c1)O[C@H](CN(C)Cc1cncnc1)[C@@H](C)CN([C@@H](C)CO)S2(=O)=O,inconclusive: 95.2%
10,C[C@@H]1CCCCO[C@@H](CN(C)Cc2ccc3c(c2)OCO3)[C@H](C)CN([C@@H](C)CO)C(=O)c2cc(NC(=O)Nc3ccc(C(F)(F)F)cc3)ccc2O1,inconclusive: 121%
11,COc1cccc(C#Cc2ccc([C@@H]3[C@H](C#N)N(C(=O)C4CC4)[C@H]3CO)cc2)c1,inconclusive: 96.2%
12,CCS(=O)(=O)Nc1ccc2c(c1)C(=O)N(C)[C@H]1CC[C@H](CC(=O)N3CCOCC3)O[C@@H]1CO2,inactive: 2.34%
13,O=C(Nc1cc(F)ccc1F)N1CCCCN2[C@H](CO)[C@H](c3ccc(-c4ccncc4)cc3)[C@H]2C1,active: 101%
14,CC(C)CC#Cc1cnc2c(c1)C(=O)N([C@H](C)CO)C[C@@H](C)[C@@H](CN(C)Cc1cccc(F)c1)O2,inconclusive: 71.7%
15,C[C@@H]1CN([C@@H](C)CO)C(=O)c2cc(NC(=O)Cc3ccccc3)ccc2O[C@@H]1CN(C)Cc1ccc(-c2ccccc2)cc1,inconclusive: 109%
16,C[C@@H]1CN([C@H](C)CO)C(=O)c2cc(C#CC3CCCCC3)cnc2O[C@@H]1CN(C)C(=O)NC1CCCC1,inconclusive: 95.6%
17,COc1ccc(NC(=O)Nc2ccc3c(c2)C(=O)N([C@H](C)CO)C[C@@H](C)[C@H](CN(C)Cc2ccc4c(c2)OCO4)OCCCC[C@H](C)O3)cc1,inactive: 41.7%
18,C[C@H](CO)N1C[C@H](C)[C@@H](CN(C)Cc2ccncc2)OCc2ccccc2-c2ccccc2C1=O,inconclusive: 95.2%

row,Structure (SMILES),inhibition
1,C[C@@H]1CCCCO[C@@H](CN(C)Cc2ccccc2)[C@H](C)CN([C@@H](C)CO)C(=O)c2cc(NC(=O)Nc3ccc(F)cc3)ccc2O1,inconclusive: 97.7%
2,C[C@@H]1CN([C@H](C)CO)S(=O)(=O)c2ccc(C#Cc3ccc(F)cc3)cc2O[C@@H]1CN(C)S(=O)(=O)c1ccc(F)cc1,inconclusive: 86.6%
3,COc1cccc(C#Cc2ccc([C@H]3[C@@H](CO)N(C(=O)C4CCC4)[C@H]3C#N)cc2)c1,inactive: 86.7%
4,O=C(c1cccc(F)c1)N1CCCCN2[C@H](CO)[C@H](c3ccc(-c4cccnc4)cc3)[C@@H]2C1,inconclusive: 95.1%
5,C[C@@H]1CN([C@@H](C)CO)C(=O)c2cc(NC(=O)c3ccccc3)ccc2O[C@@H](C)CCCCO[C@H]1CN(C)CC1CCCCC1,inactive: 57.6%
6,CC(C)CC#Cc1ccc([C@@H]2[C@H](CO)N3CCCCN(C(=O)c4ccc5c(c4)OCO5)C[C@@H]23)cc1,active: 106%
7,COc1cccc(NC(=O)N(C)C[C@@H]2Oc3cc(C#Cc4ccccc4)ccc3S(=O)(=O)N([C@@H](C)CO)C[C@@H]2C)c1,inconclusive: 96.3%
8,C[C@@H]1CCCCO[C@H](CN(C)C(=O)Nc2ccc(F)cc2)[C@H](C)CN([C@@H](C)CO)C(=O)c2cc(NC(=O)C3CCCCC3)ccc2O1,inconclusive: 95.1%
9,COc1ccc(NC(=O)Nc2ccc3c(c2)C(=O)N([C@@H](C)CO)C[C@H](C)[C@@H](CN(C)C)O3)cc1,inactive: 16.2%
10,COc1ccc(S(=O)(=O)N2CC[C@H]3[C@@H](CO)N(C)c4ccc(C5=CCCCC5)cc4[C@H]32)cc1,inconclusive: 97.7%
11,C[C@H](CO)N1C[C@H](C)[C@@H](CN(C)C(=O)c2ccc3ccn(C)c3c2)OCc2cnnn2CCCC1=O,active: 117%
12,COc1ccc(S(=O)(=O)Nc2ccc3c(c2)C(=O)N([C@@H](C)CO)C[C@@H](C)[C@H](CN(C)Cc2ccc(Cl)c(Cl)c2)O3)cc1,active: 121%
13,CCCNC(=O)C[C@H]1C[C@H]2c3cc(NC(=O)CN(C)C)ccc3O[C@H]2[C@@H](CO)O1,active: 101%
14,CCN(C[C@@H]1[C@@H](c2ccc(-c3ccccc3)cc2)[C@H](CO)N1C(C)=O)C(C)=O,inconclusive: 95.7%
15,C[C@@H]1CCCCO[C@H](CN(C)C(=O)Nc2ccc(C(F)(F)F)cc2)[C@H](C)CN([C@H](C)CO)C(=O)c2cc(NC(=O)CCC(F)(F)F)ccc2O1,active: 107%
16,C[C@H]1CN([C@@H](C)CO)C(=O)c2cc(C#CCc3ccccc3)cnc2O[C@@H]1CN(C)Cc1cccc(F)c1,inconclusive: 82.8%
17,CC(C)CC#Cc1ccc2c(c1)O[C@H](CN(C)Cc1ccccc1F)[C@@H](C)CN([C@@H](C)CO)S2(=O)=O,inconclusive: 124%
18,CCCNC(=O)N1[C@@H]2c3ccc(-c4cccc(OC)c4)c(=O)n3C[C@H]1[C@H](CO)[C@H]2C(=O)NC1CCC1,inactive: 8.54%
